In PubChem BioAssay AID485367 (National Center for Advancing Translational Sciences (NCATS), 2010):
The campaign covered roughly 330,000 compounds. About 560 (0.17%) were called active. Inconclusive means that the source gave no clear call. Such entries were picked first, then a sample of the others. The call rests on the fitted dose curve; in most records, active means well fitted inhibition curve with a large enough effect; inconclusive means small, poorly fitted or top-dose-only effect, or effect the other way; inactive means flat fitted curve, though single readings scatter. No potency is given beside an inconclusive call; the fits are too rough.

biological target: ATP-dependent 6-phosphofructokinase (Trypanosoma brucei brucei) (UniProt O15648); assay: qHTS Assay to Find Inhibitors of T. brucei phosphofructokinase; further: nearly all actives have a fitted effect of over 60% in size;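 on activity, negative = inhibition: 0% = uninhibited 1x PFK enzyme wells and -100% = no-enzyme wells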; settings: T. brucei PFK, ADP-Glo luminescence; activity, negative = inhibition: at 57.5 µM (top of the series)
Chain of UniProt O15648 (O15648 whole entry, looked up): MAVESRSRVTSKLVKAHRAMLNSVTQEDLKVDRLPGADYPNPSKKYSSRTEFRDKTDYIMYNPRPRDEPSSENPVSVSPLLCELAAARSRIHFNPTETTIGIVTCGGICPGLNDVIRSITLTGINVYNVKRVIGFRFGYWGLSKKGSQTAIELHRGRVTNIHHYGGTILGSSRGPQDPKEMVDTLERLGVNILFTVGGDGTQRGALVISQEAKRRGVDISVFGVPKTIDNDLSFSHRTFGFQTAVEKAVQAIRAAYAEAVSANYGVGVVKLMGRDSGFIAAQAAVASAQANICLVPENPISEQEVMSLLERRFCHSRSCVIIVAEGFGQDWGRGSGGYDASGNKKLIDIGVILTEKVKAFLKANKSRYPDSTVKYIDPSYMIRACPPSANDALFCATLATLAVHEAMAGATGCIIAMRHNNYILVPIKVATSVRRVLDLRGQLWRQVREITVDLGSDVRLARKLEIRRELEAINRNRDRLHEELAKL
Outline: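 Activity is normalized to no-enzyme wells (full inhibition) and 1.25 nM enzyme wells (no inhibition). Reaction: 0.5 mM F6P, 0.1 mM ATP, 45 min RT, ADP-Glo luminescence; concentration-response curves fitted and classed by quality.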
Potency means the concentration at half of the fitted maximal effect; tags describe the fitted curve by direction and shape.

Compound | Potency | activity, negative = inhibition
CCOCCn1c(N2CCCC2)nc2c1c(=O)[nH]c(=O)n2C | inconclusive [falling, single point] | 
COC(=O)c1ccc(NC(c2ccc(Cl)cc2)P(=O)(OC)OC)cc1 (configuration not stated) | inconclusive [falling, full curve, poor fit] | 
COc1ccc(C(=O)c2coc3ccc(OC(C)=O)cc23)cc1 |  | inactive: 1.5%
C/C(=N\NC(=O)Cc1ccc(Cl)c(Cl)c1)c1cccnc1 | active: 19 µM | 
Cc1ccc(S(=O)(=O)N2CCC(C(=O)OCc3ccc([N+](=O)[O-])cc3)CC2)cc1 | inconclusive [falling, partial curve] | 
O=C(O)c1ccc(Cn2c(SCc3cc(=O)n4cc(Br)ccc4n3)nc3ccsc3c2=O)cc1 |  | inactive: -11.3%
CCCN1CCN(CCCNC(=O)CN2C(=O)COc3ccccc32)CC1 | inconclusive [activator, single point] | 
Cc1cccc(C(=O)OCC(=O)NC(=O)c2ccccc2)c1O | inconclusive [falling, single point] | 
Cc1[nH]n(-c2ccccc2)c(=S)c1C=Nc1ccc([N+](=O)[O-])cc1 | inconclusive [falling, single point] | 
COc1ccc(CSCC(=O)N/N=C/c2ccccc2O)cc1 |  | inactive: -3.57%
O=C(CSc1nnc(CNc2ccc(F)cc2)o1)N1CCN(C(=O)c2ccco2)CC1 | inconclusive [falling, partial curve] | 
Cc1ccc2nc(CCc3nc4ccc(C)cc4[nH]3)[nH]c2c1 |  | inactive: 1.57%
O=Cc1ccc2oc3nc4n(c(=O)c3c(=O)c2c1)CCCS4 | inconclusive [falling, partial curve] | 
Nc1nc(N2CCCCC2)c(C=O)c(N2CCCCC2)n1 |  | inactive: 0.54%
CCc1ccc(OCC(=O)N/N=C\c2ccco2)c([N+](=O)[O-])c1 | inconclusive [falling, partial curve] | 
COc1ccccc1C(=O)Oc1ccc2c(c1)O/C(=C\c1ccncc1)C2=O |  | inactive: 0%
Cc1ccc(CN(CC2CCCO2)C(=O)CN2C(=O)C(C(C)C)Oc3ccccc32)o1 (configuration not stated) |  | inactive: 1.01%
Fc1ccc(NC(=S)Nc2cccnc2)cc1Cl | inconclusive [falling, single point] | 
O=C(CN1CCN(c2ccccc2O)CC1)Nc1ccccc1C(=O)NCCc1ccccc1 |  | inactive: -11.7%
Cc1cc[n+](-c2[nH]c(=O)sc2/C=N/N=C(\[O-])c2ccncc2)cc1 | active: 19 µM | 
O=C(Cc1ccc([N+](=O)[O-])cc1)Nc1nccs1 | inconclusive [falling, partial curve] | 
Cc1cc(NC(=O)Cc2cccs2)no1 | inconclusive [falling, partial curve] | 
Cc1ccc(S(=O)(=O)c2c(N)n(Cc3ccco3)c3nc4ccccc4nc23)cc1 |  | inactive: -0.68%
COc1ccc(C(=O)CSc2nnc(-c3ccco3)n2CC2CCCO2)cc1 (configuration not stated) |  | inactive: 0.934%

Compound | Potency | activity, negative = inhibition
Cc1sc2ncnc(N3CCC(C(=O)Nc4ccc(S(N)(=O)=O)cc4)CC3)c2c1C |  | inactive: 14.5%
CC(=O)N1CCN(C(=S)c2cccc([N+](=O)[O-])c2)CC1 |  | inactive: 3.41%
N#CCSc1nnc(CNc2ccc(F)cc2)o1 | inconclusive [falling, single point] | 
S=c1[nH]nc(CSCCOc2ccc(Cl)cc2Cl)o1 |  | inactive: -2.94%
Cc1ccc([N+](=O)[O-])cc1N=C1C(=O)Nc2ccccc21 | inconclusive [falling, partial curve] | 
Cc1[nH]c2ccccc2c1C(=O)CN1C(=O)C(=O)N(Cc2ccco2)C1=O | inconclusive [activator, partial curve] | 
Nc1ccc(OC(=O)Nc2ccc(O)cc2)cc1 |  | inactive: -9.91%
N#CC1=C(N)NC(=S)C(C(N)=O)C1c1ccc([N+](=O)[O-])cc1 (configuration not stated) | inconclusive [falling, partial curve] | 
O=C1NC(c2ccc(Cl)cc2)Nc2ccccc21 (configuration not stated) | inconclusive [falling, single point] | 
CCOC(=O)C(=NC1CCS(=O)(=O)C1)NNc1cc(Cl)ccc1Cl (configuration not stated) |  | inactive: 3.62%
O=C(Nc1ccc2nc(-c3ccco3)c(-c3ccco3)nc2c1)N1CCN(c2ccccn2)CC1 | inconclusive [falling, full curve] | 
COCCn1c(SCC(=O)Nc2ccc3[nH]c(=O)[nH]c3c2)nc2ccccc2c1=O | inconclusive [falling, partial curve, poor fit] | 
CCc1ccc(OCC(=O)Nc2ccc(S(=O)(=O)N3CCCC3)cc2)c(Br)c1 |  | inactive: -1.91%
COc1ccc(C2NC(=O)CCC2[N+](=O)[O-])cc1 (configuration not stated) | inconclusive [falling, single point] | 
CN(C)c1ccc(/C=N/OC(=O)Nc2ccccc2)cc1 | inconclusive [falling, single point] | 
NC(=O)c1ccccc1NC(=O)Nc1cccc2ccccc12 | inconclusive [falling, single point] | 
COc1ccccc1N1CCN(C(=O)c2cc3c(s2)CCC3)CC1 | inconclusive [falling, partial curve] | 
COc1ccc(-c2csc(Nc3ncccc3C)n2)cc1 |  | inactive: 2.1%
O=C(O)CCC(=O)N1CCN(c2ncccn2)CC1 | inconclusive [falling, single point] | 
CCOc1cc(/C=C2\SC(=Nc3ccc(CC)cc3)NC2=O)ccc1OCC(=O)O |  | inactive: -16.8%
COc1ccccc1NS(=O)(=O)c1cc(N)ccc1N1CCOCC1 | inconclusive [falling, single point] | 
CCN1CCN(CC(=O)N/N=C/c2cc(Br)cs2)CC1 | inconclusive [falling, single point] | 
N#Cc1cc(-c2ccccc2)nn1-c1ccccc1 | inconclusive [falling, single point] | 
CC1Cc2cc(S(=O)(=O)N3CCC(C(=O)N(C)Cc4ccccc4)CC3)ccc2N1C(=O)C1CC1 (configuration not stated) |  | inactive: 0.815%

Compound | Potency | activity, negative = inhibition
CCOc1cc(/C=C2/C(=O)ON=C2C)ccc1OCc1ccccc1 |  | inactive: -9.8%
Cc1ncc(CO)c2c1Oc1nc(-c3ccccc3)nc(SCC(=O)N(C)c3ccccc3)c1C2 | inconclusive [falling, single point] | 
CN1C(=O)/C(=C2/C=Cc3ccccc3N2CCCS(=O)(=O)O)SC1=S |  | inactive: -22%
COc1ccc(OC)c(S(=O)(=O)N(C(C)=O)c2ccc3oc(=O)sc3c2)c1 | inconclusive [activator, partial curve] | 
Cc1cc(OC2CCCCC2)nc(NCc2ccccc2)n1 | inconclusive [falling, single point] | 
N/C(=N\OC(=O)c1cccs1)c1ccccc1 | inconclusive [falling, partial curve] | 
CCOC(=O)C1=C(C)N=c2s/c(=C\c3ccc(OCC(=O)O)cc3)c(=O)n2C1c1ccc(Cl)cc1 (configuration not stated) | inconclusive [falling, single point] | 
Fc1ccc(F)c(C2=NNC(=NCC3CCCO3)SC2)c1 (configuration not stated) | inconclusive [falling, single point] | 
COc1cc(C=O)ccc1Oc1nc(Nc2ccc(F)cc2F)nc(N2CCOCC2)n1 | inconclusive [activator, single point] | 
Cc1ccc2nc(-c3ccc(NC(=O)c4ccco4)cc3)[nH]c2c1 | inconclusive [activator, single point] | 
Cc1cc(NC(=O)COC(=O)CSCc2ccc(Cl)c(Cl)c2)no1 | inconclusive [falling, partial curve] | 
CCOC(=O)Cc1csc(-n2sc3ccccc3c2=O)n1 | active: 10.7 µM | 
CCc1ccc(NC(=S)Nc2ccc3cn[nH]c3c2)cc1 | inconclusive [falling, single point] | 
CC(C)n1ncc2c(C(=O)Nc3ccc(S(N)(=O)=O)cc3)cc(C3CC3)nc21 | inconclusive [activator, partial curve] | 
COc1ccc(OC)c(/C=N/NC(=O)CCc2ccc(O)c(O)c2)c1 | active: 1.69 µM | 
O=C(CCS(=O)(=O)c1ccc(Br)cc1)Nc1ccc(Br)cc1F | inconclusive [falling, partial curve] | 
N#Cc1c(NC(NC(=O)c2ccco2)C(=O)c2ccccc2)sc2c1CCCC2 (configuration not stated) | inconclusive [falling, partial curve] | 
COc1ccc(CN(C(=O)/C=C/c2ccco2)C2CCS(=O)(=O)C2)cc1OC (configuration not stated) | inconclusive [falling, single point] | 
COc1ccc(NS(=O)(=O)c2cccc(C(=O)N/N=C/c3ccc(O)cc3)c2)cc1 | inconclusive [activator, single point] | 
Nc1c(C(=O)Nc2ccc(Cl)c(C(=O)O)c2)sc2nc3c(cc12)CCCC3 | inconclusive [falling, single point] | 
CCCCC1=CC2=C(c3ccco3)C(=O)C(C)(OC(=O)c3ccc(OC)cc3)C(=O)C2=CN1CC(C)C (configuration not stated) | inconclusive [falling, single point] | 
Cc1ccc(S(=O)(=O)N(C)CC(=O)NNC(=O)Cc2cccc(F)c2)cc1 | inconclusive [falling, single point] | 
COc1cc(C2c3c([nH]c(=O)[nH]c3=O)Nc3ccc4ccccc4c32)ccc1O (configuration not stated) | inconclusive [falling, partial curve, poor fit] | 
CCCC[C@]12Cc3c(ccc4ccccc34)C(O1)C1=C(O2)C(=O)c2ccccc2C1=O |  | inactive: -1.23% [at 11.5 µM]
